Reference: paper PMC4336329 (PLoS ONE, 2015)
In all, about 310,000 compounds went through this assay and about 2,200 (0.71%) showed an effect of 50% or more. The effect is printed as a negative number. The list shows a part of the results.

Target: human ether-à-go-go-related gene (hERG) potassium channel (human, UniProt Q12809)
Experiment: primary screen, population patch clamp on CHO cells stably expressing hERG

Chain of human ether-à-go-go-related gene (hERG) potassium channel (Q12809 whole entry, looked up): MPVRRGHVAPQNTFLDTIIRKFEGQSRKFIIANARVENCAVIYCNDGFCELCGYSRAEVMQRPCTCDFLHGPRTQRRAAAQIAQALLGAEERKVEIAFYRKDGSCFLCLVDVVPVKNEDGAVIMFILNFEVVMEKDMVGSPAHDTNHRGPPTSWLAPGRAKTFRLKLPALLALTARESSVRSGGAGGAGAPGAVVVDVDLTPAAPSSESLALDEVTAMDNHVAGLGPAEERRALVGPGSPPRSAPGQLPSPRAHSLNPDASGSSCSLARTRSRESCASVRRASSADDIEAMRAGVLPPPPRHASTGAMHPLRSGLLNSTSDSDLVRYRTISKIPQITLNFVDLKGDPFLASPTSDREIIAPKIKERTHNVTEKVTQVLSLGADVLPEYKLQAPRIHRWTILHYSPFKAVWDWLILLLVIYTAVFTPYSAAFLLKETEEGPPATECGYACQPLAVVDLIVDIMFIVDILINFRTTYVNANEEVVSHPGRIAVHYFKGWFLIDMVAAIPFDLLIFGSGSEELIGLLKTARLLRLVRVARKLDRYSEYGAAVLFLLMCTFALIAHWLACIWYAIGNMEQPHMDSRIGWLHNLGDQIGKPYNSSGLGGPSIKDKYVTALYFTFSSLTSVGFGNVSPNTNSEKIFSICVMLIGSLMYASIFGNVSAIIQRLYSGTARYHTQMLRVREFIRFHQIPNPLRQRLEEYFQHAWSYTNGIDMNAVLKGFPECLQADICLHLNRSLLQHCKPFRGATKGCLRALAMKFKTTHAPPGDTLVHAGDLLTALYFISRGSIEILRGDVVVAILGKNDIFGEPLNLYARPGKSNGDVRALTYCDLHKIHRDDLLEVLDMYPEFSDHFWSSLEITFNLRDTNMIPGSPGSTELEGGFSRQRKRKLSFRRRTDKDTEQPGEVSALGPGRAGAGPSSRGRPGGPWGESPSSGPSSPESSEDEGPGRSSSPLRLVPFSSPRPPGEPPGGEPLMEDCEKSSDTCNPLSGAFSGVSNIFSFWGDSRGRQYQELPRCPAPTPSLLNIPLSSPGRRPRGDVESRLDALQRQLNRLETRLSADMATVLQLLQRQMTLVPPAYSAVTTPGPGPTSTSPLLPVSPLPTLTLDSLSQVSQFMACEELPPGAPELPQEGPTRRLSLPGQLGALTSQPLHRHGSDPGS

SMILES | hERG current change (%, negative = inhibition) at 1uM [%]
O=C(Nc1cccc(Cl)c1)Nc1ccccc1C(=O)O | -2.47
CSc1ccccc1NC(=O)COc1ccccc1C | 11
CCCc1cc(N2CCCC(C(=O)Nc3ccc(OC)cc3OC)C2)n2ncnc2n1 (stereo not drawn) | -27.7
O=C(Cn1cncn1)N/N=C/c1cccnc1 | 15.6
CN1CCN(C(=O)c2cnn3c(C(F)(F)F)cc(-c4cccs4)nc23)CC1 | 0.181
C/C(=N/NC(=O)CNC(=O)c1ccccn1)c1cccc([N+](=O)[O-])c1 | 9.86
O=C(NC(=S)Nc1cccnc1)c1cccs1 | 2.64
COc1ccccc1OCc1nc(C#N)c(N2CCCC2)o1 | 8.7
CC(=O)Nc1ccc(NC(=O)C2CCC(CNS(=O)(=O)c3cccc4nsnc34)CC2)cc1 (stereo not drawn) | 3.69
O=S(=O)(c1ccc(Cl)cc1)N1CCC(n2cnc3cc(C(F)(F)F)ccc32)CC1 | -31.2
O=S(=O)(NCC(Nc1ccccc1)c1ccccc1)c1ccc(Cl)cc1 (stereo not drawn) | -1.6
Cc1c2cnn(CC(=O)NCCCN3CC(C)CC(C)C3)c(=O)c2c(C)n1Cc1ccccc1Cl (stereo not drawn) | -12.6
Cc1ccc(S(=O)(=O)Nc2cc(-c3ccc(Cl)cc3)nn2C)cc1 | 5.74
O=C(NCC(=O)N(c1ccccc1)C(C(=O)NCC1CCCO1)c1ccccc1)c1ccco1 (stereo not drawn) | 13.9
CCC(=O)Nc1nc2ccccc2n1Cc1ccccc1C | 6.61
CCC(=O)Nc1c2c(nn1-c1ccc(OC)cc1)CSC2 | 6.51
Cc1ccnc(NS(=O)(=O)c2ccc(NC(=O)c3ccc(Br)o3)cc2)n1 | 4.22
CN1CCN(C(=O)CCNC(=O)Cn2ccc3ccccc3c2=O)CC1 | 21.2
CCCCn1c(O)c(C(CC)=NCc2cc(OC)cc(OC)c2)c(=O)[nH]c1=O | 4.79
Cc1ccc(CNC(=O)C2CCCN(c3nn4c(=O)cc(C)nc4s3)C2)cc1 (stereo not drawn) | -0.47
CCOC(=O)C1CCN(CC(O)COCc2ccccc2)CC1.O=C(O)C(=O)O (stereo not drawn) | 3.28
CC(C)(C)C(=O)CC1(O)C(=O)N(Cc2ccc(Cl)cc2)c2ccccc21 (stereo not drawn) | 13.3
CC(C(=O)Nc1ccccc1C(=O)N1CCOCC1)N(c1ccc(Cl)cc1)S(C)(=O)=O (stereo not drawn) | 15.7

SMILES | hERG current change (%, negative = inhibition) at 1uM [%]
Cc1cccc(NC(=O)C2CC(=O)n3ncnc3N2)c1 (stereo not drawn) | 10.4
O=C(CSc1nncn1-c1ccccc1)NCc1cccs1 | 14.7
CCC1(CC)C(=O)NC(=O)NC1=Nc1ccccc1 | 13.3
CCOC(=O)/C(C#N)=C/c1ccc(OC(=O)c2ccccn2)cc1 | -0.898
Nc1nc(NCc2ccccc2)nc(-c2ccccc2)n1 | 7.82
S=C1NC(C23CC4CC(CC(C4)C2)C3)=CC(c2ccc3c(c2)OCO3)N1 (stereo not drawn) | 6.57
CC(C)CN(C(=O)COC(=O)CNC(=O)c1ccccc1F)c1c(N)n(Cc2ccccc2)c(=O)[nH]c1=O | -5.54
COc1ccc2nc3oc(C(=O)N4CCC5(CC4)OCCO5)cc3cc2c1 | 4.64
CC(C)CNS(=O)(=O)c1ccc(CCC(=O)Nc2cc(Cl)ccc2Oc2ccccc2)cc1 | 7.85
COc1cccc(CN2CCNC(=O)C2CC(=O)NCCn2ccc3ccccc32)c1OC (stereo not drawn) | 12.2
Cl.O[C@@H](c1cc(C(F)(F)F)nc2c(C(F)(F)F)cccc12)[C@H]1CCCCN1 | 13.2
CCc1cc(-c2onc(C)c2-c2cscn2)c(O)cc1OC | 4.67
COc1ccc(C2=CC3=C(Br)C(=O)C(C)(OC(=O)c4ccco4)C(=O)C3=CO2)cc1 (stereo not drawn) | 12.7
CCc1noc(C)c1C(=O)Nc1nc(-c2cc(OC)ccc2OC)cs1 | 2.76
Cc1ccc(C(=O)NCCSC(C)(C)C)cc1[N+](=O)[O-] | -4.25
COc1ccccc1N1CCN(Cc2ccc(F)cc2)CC1 | 6.42
COC(=O)[C@H](CC(C)C)NC(=O)N1CCCCC1 | 11.8
CC(C)Cn1cc(C(=O)N2CCC3(CC2)OCCO3)c2c3ccccc3n(C)c2c1=O | -1.15
COCCN(Cc1cn(C)nc1-c1ccc(Oc2ccccc2)cc1)C(C)C | -6.04
C=CCn1c2ccccc2n2nc(C)c(=O)nc12 | 6.25
CN(C)S(=O)(=O)c1cccc(NC(=O)COC(=O)CCOc2ccccc2)c1 | 9.82
CCOC(=O)c1c(S(=O)(=O)NCC(=O)Nc2cccc(C)n2)c(C)n(C)c1C | 20.6
Cc1ccc(-c2nc(C(=O)O)cs2)cc1 | 12.3

SMILES | hERG current change (%, negative = inhibition) at 1uM [%]
CN1CCC(=NNC(=O)C(=O)NC2CCCC2)CC1 | 5.03
COc1cc(C(=O)c2ccccc2)c(OC)cc1C(=O)Nc1ccc(O)cc1 | 10.3
O=C1c2ccccc2NC(c2cccc(F)c2)N1Cc1ccco1 (stereo not drawn) | -0.722
CCC(c1nnc(SCC(=O)Nc2ccc(C(N)=O)cc2)n1Cc1ccccc1)N(C)C (stereo not drawn) | 13
OCCNc1nc(-c2ccccc2)c2cc(Br)ccc2n1 | 7.28
Cc1csc(SCC(=O)N2CCN(S(=O)(=O)c3ccccc3)CC2)n1 | 11
CN(C)c1c(F)cc(C(=O)NCc2ccccc2)cc1F | 8.34
COc1ccccc1/C=C/CN1CCCCC1 | 11
CC(C)CCN1NC2(CCCC(C)C2)NC1=S (stereo not drawn) | 14.6
CC(CNC(=O)CCC(=O)N1CCOc2ccc(Cl)cc21)c1ccccc1 (stereo not drawn) | 2.8
CCC(=O)N(c1ccc(C(=O)O)cc1)c1nc(-c2ccc(OC)cc2)c(C)s1 | 6.17
Cc1ccc(CCC(=O)Nc2ccc(CC(=O)O)cc2)o1 | 13.4
NNC(=O)c1cc(Cl)ccc1Cl | 15.5
CCOc1ccc(-n2c(=O)c3sccc3n(Cc3ccc(C)cc3)c2=O)cc1 | 8.82
COc1ccc(OC)c(C(c2nnnn2C(C)(C)C)N2CCc3ccccc3C2)c1.Cl (stereo not drawn) | 6.42
CCC(C)(C)n1nnnc1C(c1cccs1)N1CCN(Cc2ccccc2)CC1 (stereo not drawn) | 2.67
Cc1ccc(S(=O)(=O)NC(CC(N)=O)C(=O)O)cc1 (stereo not drawn) | 7.9
CCOC(=O)c1oc2ccccc2c1NC(=O)c1ccc2c(c1)OCO2 | 6.17
CC(C)(Sc1ccc(CCN(CCCCC2CCCCC2)C(=O)NC2CCCCC2)cc1)C(=O)O | 11.4
CN(C)/C=N/c1sccc1C(N)=O | 6.32
Cc1ccc(C(=O)N2CCC3(CC2)Oc2ccc(Cl)cc2C(=O)C32CC(c3ccc(Cl)cc3)=NO2)s1 (stereo not drawn) | 11.5
CC(=O)c1cccc(NC(=O)C(=O)c2cn(CC(=O)N3CCCCC3)c3ccccc23)c1 | -5.28
CCOC1=NS(=O)(=O)c2ccccc21 | 6.24

SMILES | hERG current change (%, negative = inhibition) at 1uM [%]
O=[N+]([O-])c1ccc(CSc2nc3ccccc3[nH]2)cc1 | -0.0232
CC1CCCC(C)N1C(=O)CSc1nnc(COc2cccc3cccnc23)o1 (stereo not drawn) | 11.3
Cc1ccc(NC(=O)CSc2nnc(NC(=O)C3CC3)s2)cc1 | 16.7
COc1ccc(NC(=O)c2cc(-c3cc(OC)c(OC)c(OC)c3)nc3ccccc23)cc1OC | 11.1
Cc1cc(Cl)cc(Cl)c1OCCOCCN(C)C.O=C(O)C(=O)O | 3.77
O=C(O)c1cccc(NC(=O)c2ccc(COc3ccc(Cl)cc3)cc2)c1 | 10
C/C(=N\NC(N)=O)C1(C)CCCCC1 | 5.86
O=C(N/N=C/c1ccco1)C1CC1 | 10.8
Cc1ccc(S(=O)(=O)N(C)C)cc1NC(=S)NCCc1ccccn1 | 17.5
Cc1c(C(=O)NCC(C)C)sc2nc(-c3ccc(F)cc3)cn12 | 0.013
COc1cc(C(=O)NC2CCN(CC(=O)NC3CCCCC3C)CC2)cc(OC)c1OC (stereo not drawn) | 8.93
CCOC(=O)N1CCN(S(=O)(=O)c2ccc(OCC)c(C)c2)CC1 | -0.526
COc1ccccc1N1CCN(C(=O)CSc2nc(N)cc(=O)[nH]2)CC1 | 4.68
COc1ccc(C(=O)CC2SC(N)=NC2=O)cc1 (stereo not drawn) | 13.6
Cc1ccc(OCCN2CCN(C(=O)CCC(=O)Nc3nnc(CC(C)C)s3)CC2)cc1 | -5.91
O=C1NC(=O)N(c2cccc(F)c2)C(=O)/C1=C/c1ccc(N2CCOCC2)cc1 | 12
COc1cc(SC)ccc1C(=O)NNC(=O)c1cc(C)oc1C | 14.7
CCOCC(=O)Nc1ncc(S(=O)(=O)c2ccc([N+](=O)[O-])cc2)s1 | 2.86
COc1ccc(CC(=O)N2CCOCC2)cc1 | 2.04
CCc1ccccc1N(C(=O)CCC(=O)Nc1cc(C)on1)C(C(=O)NC1CCCC1)c1ccco1 (stereo not drawn) | 0.765
CC(C)C1Oc2cc3oc(=O)ccc3cc2C1=O (stereo not drawn) | -8.41
